Data as given in a collection of fitness landscapes (doi:10.1016/j.celrep.2020.107928).
In all, about 81,000 sequences were measured (“one-hybrid fitness for binding parS DNA”: median about -0.17, highest 2% from about 0.51 on). This is one part of the list.

B1: Caulobacter ParB omega fusion; a variant is named by its letters at X, in order, B8GW30 (parent)
chain: MESVVVGEPGMSEGRRGLGRGLSALLGEVDAAPAQAPGEQLGGSREAPIEILQRNPDQPRRTFREEDLEDLSNSIREKGVLQPILVRPSPDTAGEYQIVAGERAWRAAQRAGLKTVPIMVRELDDLAVLEIGIIENVQRADLNVLEEALSYKVLMEKFERTQENIAQTIGKSXSHVANXMRLLXLPDEVQSYLVSGELTAXHARAIAAAADPVALAKQIIEGGLSVRETEALARKAPNLSAGKSKGGRPPRVKDTDTQALESDLSSVLGLDVSIDHRGSTGTLTITYATLEQLDDLCNRLTRGI

Variants of: B1
Assay: one-hybrid fitness for binding parS DNA (scaled: cognate 1, non-cognate 0); higher = stronger binding
Settings: with parS DNA site
Summary of the method: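 Bacterial one-hybrid selection in E. coli USO rpoZ- hisB- pyrF- with a HIS3 reporter carrying the site 19 bp from the promoter, screening Caulobacter ParB libraries with four specificity codons randomised (NNS). Cells grew 48 hours at 37°C on M9-minus-histidine plus 0.1 mM IPTG and 5 mM 3-AT. Plasmids before and after selection were Illumina-sequenced, three replicate libraries pooled, and variants under 10 reads dropped. Fitness is the log change in variant-to-wild-type read ratio, rescaled to cognate 1, non-cognate 0.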

Variant	one-hybrid fitness for binding parS DNA
MQPR	≤ 0.2
WSPY	≤ 0.2
SCHC	≤ 0.2
GSVE	≤ 0.2
QHAY	≤ 0.2
MSPT	≤ 0.2
PVRL	≤ 0.2
YDNV	≤ 0.2
TSCN	≤ 0.2
MPIL	≤ 0.2
TSKV	≤ 0.2
RGDN	≤ 0.2
LGIF	≤ 0.2
YLGR	≤ 0.2
HSVC	≤ 0.2
PMRA	≤ 0.2
LYGG	≤ 0.2
SASD	≤ 0.2
NAKQ	≤ 0.2
QWRS	≤ 0.2
PERE	≤ 0.2
CEVT	≤ 0.2
YHLR	≤ 0.2
WKLW	≤ 0.2

Variant	one-hybrid fitness for binding parS DNA
HSKN	≤ 0.2
RDVC	≤ 0.2
YDPL	≤ 0.2
CGRF	≤ 0.2
DHCF	≤ 0.2
NLCV	≤ 0.2
LDAF	≤ 0.2
LDVT	≤ 0.2
QNYY	≤ 0.2
VPFS	≤ 0.2
QCRA	≤ 0.2
NETK	≤ 0.2
YQSD	≤ 0.2
AFSL	≤ 0.2
DRFN	≤ 0.2
RSAK	≤ 0.2
IYHW	≤ 0.2
HPPD	≤ 0.2
VSPD	≤ 0.2
NEAL	≤ 0.2
NLRC	≤ 0.2
FSLF	≤ 0.2
HGAN	≤ 0.2
KWHC	≤ 0.2

Variant	one-hybrid fitness for binding parS DNA
YGSW	≤ 0.2
EKYT	≤ 0.2
QVYG	≤ 0.2
QQHS	≤ 0.2
RGQA	0.364
CAWG	≤ 0.2
QGII	≤ 0.2
TMRG	≤ 0.2
RKFS	0.927
HYMY	≤ 0.2
IFNC	≤ 0.2
QQYT	≤ 0.2
MACA	≤ 0.2
WPQC	0.245
LGSF	≤ 0.2
ICRT	≤ 0.2
PGSW	≤ 0.2
ECGS	≤ 0.2
WPES	≤ 0.2
WTVC	≤ 0.2
VWSR	≤ 0.2
SLDT	≤ 0.2
GAMW	≤ 0.2
SMAR	≤ 0.2

Variant	one-hybrid fitness for binding parS DNA
MQCS	≤ 0.2
ACHH	≤ 0.2
VLGG	≤ 0.2
PFHL	≤ 0.2
WTLN	≤ 0.2
TGTR	≤ 0.2
APPD	≤ 0.2
KNFR	≤ 0.2
VDYV	≤ 0.2
LKQG	≤ 0.2
DKYS	≤ 0.2
DVPC	≤ 0.2
ECYC	≤ 0.2
CFES	≤ 0.2
SDIS	≤ 0.2
SQAE	≤ 0.2
VTCL	≤ 0.2
VLAY	≤ 0.2
HKRQ	≤ 0.2
MNLT	≤ 0.2
SGFW	0.267
LNHI	≤ 0.2
LYYL	≤ 0.2
DTFI	≤ 0.2

Variant	one-hybrid fitness for binding parS DNA
RRGH	≤ 0.2
DMHG	≤ 0.2
KLNM	≤ 0.2
TDDT	≤ 0.2
NMLV	≤ 0.2
PRLF	≤ 0.2
RTGK	≤ 0.2
IPCY	≤ 0.2
MQNS	≤ 0.2
RAML	≤ 0.2
DMPM	≤ 0.2
ICTT	≤ 0.2
QHET	≤ 0.2
RPKD	≤ 0.2
EAMR	≤ 0.2
QEEP	≤ 0.2
FMSD	≤ 0.2
LYTW	≤ 0.2
LFFK	≤ 0.2
VLAH	≤ 0.2
LTGM	≤ 0.2
GKDS	≤ 0.2
QMHL	≤ 0.2
AGVT	≤ 0.2

Variant	one-hybrid fitness for binding parS DNA
SDSS	≤ 0.2
QRLF	≤ 0.2
NKLC	≤ 0.2
VPSG	≤ 0.2
MYMR	≤ 0.2
RNMD	≤ 0.2
DFNL	≤ 0.2
LGQV	≤ 0.2
VLQN	≤ 0.2
QLIC	≤ 0.2
RACH	0.306
FEKL	≤ 0.2
QDST	≤ 0.2
TETI	≤ 0.2
FCHS	≤ 0.2
NNNR	≤ 0.2
QLRE	≤ 0.2
TADK	≤ 0.2
HMSS	≤ 0.2
DLNM	≤ 0.2
NGCC	≤ 0.2
TEEG	≤ 0.2
VQYD	≤ 0.2
LFYN	≤ 0.2

Variant	one-hybrid fitness for binding parS DNA
MPAI	≤ 0.2
LPIY	≤ 0.2
QLAF	≤ 0.2
CRPA	≤ 0.2
RITA	0.55
SMFC	≤ 0.2
KERT	≤ 0.2
RIES	0.93
TYNC	≤ 0.2
RTMN	0.433
DWHY	≤ 0.2
AFNG	≤ 0.2
KLAV	≤ 0.2
YRLD	≤ 0.2
ASSC	≤ 0.2
TCNW	≤ 0.2
RMSP	0.204
QCMT	≤ 0.2
RKNC	0.806
LVYY	≤ 0.2
GLCG	≤ 0.2
KHPR	≤ 0.2
RVTR	≤ 0.2
QYLL	≤ 0.2

Variant	one-hybrid fitness for binding parS DNA
HCIG	≤ 0.2
MPSC	≤ 0.2
QIPN	≤ 0.2
CNKY	≤ 0.2
HFPG	≤ 0.2
RAYI	≤ 0.2
WWRS	≤ 0.2
DIQV	≤ 0.2
VRNL	≤ 0.2
SRVK	≤ 0.2
TWPG	≤ 0.2
EWTV	≤ 0.2
PFAH	≤ 0.2
WAMY	≤ 0.2
TCAG	≤ 0.2
SRSY	≤ 0.2
FTSF	≤ 0.2
DRMY	≤ 0.2
RNHN	0.346
HTYS	≤ 0.2
HQMG	≤ 0.2
KIWS	≤ 0.2
FRTS	≤ 0.2
KTAG	≤ 0.2

Variant	one-hybrid fitness for binding parS DNA
AQLI	≤ 0.2
AVNG	≤ 0.2
VGNG	≤ 0.2
WFNT	≤ 0.2
KRRR	≤ 0.2
ILAG	≤ 0.2
PLKY	≤ 0.2
SGAF	≤ 0.2
VTQI	≤ 0.2
YQSV	≤ 0.2
QRGM	≤ 0.2
IRFC	≤ 0.2
FSES	≤ 0.2
WTLF	≤ 0.2
CWIS	≤ 0.2
QRPM	≤ 0.2
RVWD	0.212
YCAG	≤ 0.2
QMGV	≤ 0.2
FNQS	≤ 0.2
WQRS	≤ 0.2
PQRA	≤ 0.2
AVVH	≤ 0.2
PDGD	≤ 0.2

Variant	one-hybrid fitness for binding parS DNA
RVWW	0.26
IQHR	≤ 0.2
ACKR	≤ 0.2
MELF	≤ 0.2
LKSS	≤ 0.2
TINY	≤ 0.2
HILR	≤ 0.2
SQPR	≤ 0.2
ESVV	≤ 0.2
NYFA	≤ 0.2
VSCY	≤ 0.2
MRAV	≤ 0.2
NESC	≤ 0.2
RNPE	≤ 0.2
HVQI	≤ 0.2
ASKR	≤ 0.2
CARL	≤ 0.2
EHRK	≤ 0.2
PIRG	≤ 0.2
HVLV	≤ 0.2
PVHV	≤ 0.2
HPRS	≤ 0.2
EWPP	≤ 0.2
ADAV	≤ 0.2

Variant	one-hybrid fitness for binding parS DNA
IRSR	≤ 0.2
TFCT	≤ 0.2
AYAD	≤ 0.2
PGGL	≤ 0.2
ILQP	≤ 0.2
VARL	≤ 0.2
QDVY	≤ 0.2
CCSW	≤ 0.2
WSMR	≤ 0.2
HTPM	≤ 0.2
GVDG	≤ 0.2
QYDV	≤ 0.2
DGYC	≤ 0.2
QMMC	≤ 0.2
RRTI	≤ 0.2
HWSG	≤ 0.2
PWQG	≤ 0.2
GPVD	≤ 0.2
SEIW	≤ 0.2
MRWT	≤ 0.2
SVLC	≤ 0.2
SSLH	≤ 0.2
VADQ	≤ 0.2
RSMP	≤ 0.2

Variant	one-hybrid fitness for binding parS DNA
PHPG	≤ 0.2
YAAS	≤ 0.2
ALVC	≤ 0.2
TSWN	≤ 0.2
RWTR	≤ 0.2
TKGC	≤ 0.2
SLVC	≤ 0.2
RCRS	0.877
CFHS	≤ 0.2
VNDR	≤ 0.2
SFMN	≤ 0.2
HNDG	≤ 0.2
RRVT	0.607
TYMT	≤ 0.2
YYFF	≤ 0.2
AGNG	≤ 0.2
RRKE	≤ 0.2
QPHY	≤ 0.2
LCYS	≤ 0.2
FGGS	≤ 0.2
WAYG	≤ 0.2
TGRE	≤ 0.2
ALPD	≤ 0.2
TNVF	≤ 0.2

Variant	one-hybrid fitness for binding parS DNA
AMYC	≤ 0.2
PVQP	≤ 0.2
FVHC	≤ 0.2
MIIT	≤ 0.2
DAAF	≤ 0.2
EDLG	≤ 0.2
LAAF	≤ 0.2
QDVM	≤ 0.2
WGRT	≤ 0.2
DAPL	≤ 0.2
CVLK	≤ 0.2
KTVK	≤ 0.2
LADF	≤ 0.2
ELYS	≤ 0.2
MPPY	≤ 0.2
RPNW	≤ 0.2
SPMT	≤ 0.2
FMRS	≤ 0.2
